Hit rate of the full screen: of about 45,000 compounds, about 65 (0.1%) were called active. The call rests on the fitted dose curve; in most records, active means well fitted activation curve with a large enough effect; inconclusive means small, poorly fitted or top-dose-only effect; inactive means no such curve, though single readings can be large or run the other way. The list shows a part of the results.
These molecules were tested against Galactocerebrosidase (Homo sapiens) (UniProt P54803) (assay: A Novel Cell-Based Assay to Identify Small Molecules for B -Galactocerebrosidase). Settings: 145M-Twi-hGALC-G270D cells (Twitcher mouse brain line with human GALC G270D), HMU-beta-Gal fluorescence, 48 h; series mostly up to 57.5 µM; activation: at the top concentration.
In short: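 Mutant human GALC (G270D), stably expressed in a Twitcher mouse brain cell line lacking endogenous GALC, is measured in live-treated cells via 6-hexadecanoylamino-4-methylumbelliferyl-β-galactoside hydrolysis (0.1 mM final, pH 5.2) with fluorescent detection.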
Further: 0% is about no effect; nearly all actives have a fitted effect of over 65% in size.

Chain of UniProt P54803 (P54803 whole entry, looked up): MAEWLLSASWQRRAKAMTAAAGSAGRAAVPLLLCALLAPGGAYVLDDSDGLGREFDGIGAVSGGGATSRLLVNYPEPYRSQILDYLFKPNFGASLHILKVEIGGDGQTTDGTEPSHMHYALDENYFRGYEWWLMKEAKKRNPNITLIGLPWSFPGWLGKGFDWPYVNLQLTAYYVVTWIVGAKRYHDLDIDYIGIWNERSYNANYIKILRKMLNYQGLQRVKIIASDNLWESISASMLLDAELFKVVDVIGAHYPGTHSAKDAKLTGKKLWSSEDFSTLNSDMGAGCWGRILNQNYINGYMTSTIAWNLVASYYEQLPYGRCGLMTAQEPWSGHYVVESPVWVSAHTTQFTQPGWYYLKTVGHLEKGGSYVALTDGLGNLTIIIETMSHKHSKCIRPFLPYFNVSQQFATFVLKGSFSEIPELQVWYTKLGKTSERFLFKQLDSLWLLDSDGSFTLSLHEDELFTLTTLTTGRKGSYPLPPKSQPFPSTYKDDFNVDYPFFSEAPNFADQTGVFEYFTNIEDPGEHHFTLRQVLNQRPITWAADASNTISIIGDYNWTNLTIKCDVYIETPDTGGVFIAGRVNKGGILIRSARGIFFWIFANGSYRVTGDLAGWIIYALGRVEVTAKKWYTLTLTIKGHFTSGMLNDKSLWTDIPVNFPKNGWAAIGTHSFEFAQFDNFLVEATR

activation, inactive:
CCOc1ccccc1CNC(=O)c1ccc2c(c1)nc1n2CCCCC1 -0.589%
CCN(CC)S(=O)(=O)c1ccc2c(c1)N(CC(=O)N1CCN(c3cccc(OC)c3)CC1)C(=O)CO2 -8.93%
CCc1ccc(NC(=O)c2ccc(F)c(S(=O)(=O)NCc3ccc(Cl)c(Cl)c3)c2)cc1 0.895%
CN(C)c1ccc(-c2nc(-c3ccco3)no2)cc1[N+](=O)[O-] -30.6%
Cc1ccc(-c2cc(C(=O)N(Cc3ccc(C(C)(C)C)cc3)Cc3ccco3)no2)cc1 -12.7%
COc1ccc(NC(=O)c2ccco2)cc1NC(=O)COc1ccc(Cl)c(C)c1 -7.64%
Cc1ccc(NC(=O)N2CC3CCCN3c3ccccc32)c(C)c1 (configuration not stated) -5.96%
Fc1ccc(-n2ncc3c(N4CCCCCC4)ncnc32)cc1 -6.62%
Cc1ccc(NS(=O)(=O)c2cc3[nH]c(=O)c(=O)[nH]c3cc2C)cc1Cl 7.81%
CCOc1ccc(C(=O)Nc2c(C(=O)N3CCN(c4ccccc4F)CC3)oc3ccccc23)cc1 -7.52%
CC(C)C(=O)NCC1(N(C)C)CCCCC1 3.61%
CCc1cccc(C)c1NC(=O)CCn1c(=O)c2cccn2c2ccccc21 3.38%
Cc1cc(N2CCN(c3cccc(C(F)(F)F)c3)CC2)n2nc(-c3ccccc3)nc2n1 -10.4%
CC(Oc1ccc(Br)cc1)C(=O)Nc1ncn[nH]1 (configuration not stated) -13.3%
Cc1nc(SC(C)C(=O)Nc2ccccc2Cl)cc(-c2ccccc2)n1 (configuration not stated) -8.55%
CCn1cc(C(=O)N2CCN(c3cc(C)ccc3C)CC2)c(=O)c2cc(S(=O)(=O)N3CCCCC3)ccc21 -17.6%
COc1ccc(N2CCN(Cc3cccn3-c3nnc(N4CCN(C5CCCCC5)CC4)s3)CC2)cc1 -15.4%
CCOc1ccc(-n2nc(CO)c(C(=O)NCc3cccs3)n2)cc1 2.54%
Cc1ccc([N+](=O)[O-])cc1S(=O)(=O)N1CCn2cccc2C1c1ccccc1 (configuration not stated) -18.5%
CCOc1ccccc1CNC(=O)Cn1cc2c(n1)-c1c(oc(C(=O)N3CCCC3)c1C)CC2 -6.26%
Cc1ccc(N2C(=O)N(Cc3cc(=O)n4ccccc4n3)c3ccccc3S2(=O)=O)cc1Cl -17.5%
Cc1ccc2nc(-c3ccc(Cl)c(NC(=O)COc4ccc(C(C)C)cc4)c3)oc2c1 -4.89%
COc1ccc(NC(=O)CCc2nnc3n(Cc4ccccc4Cl)c(=O)c4ccccc4n23)cc1 -2.12%
CC(N)C(=O)OC(C)(C)Cc1ccc(Cl)cc1 (configuration not stated) -3.97%
Cc1ccc(C)c(NC(=O)C2CCCN(S(=O)(=O)c3cn(C)cn3)C2)c1 (configuration not stated) 2.62%
CCOC(=O)CSc1nc2ccccc2c(=O)n1-c1cccc(C)c1 -3.61%
CSc1ccc(CCNC(=O)c2ccc(-c3nc(COc4ccc(C)cc4)c(C)o3)cc2)cc1 -20.9%
O=C(Cn1cc(S(=O)(=O)c2ccccc2)c(=O)c2cc3c(cc21)OCO3)Nc1ccc(Cl)cc1 -0.142%
O=C(CS(=O)(=O)c1cccc2nsnc12)N1CCN(c2cccc(C(F)(F)F)c2)CC1 -11.1%
Cc1ccc(S(=O)(=O)N2CCN(Cc3nc4ccc(C)cc4o3)CC2)cc1 13.4%
COc1ccc(Br)cc1CNC(=O)CCSCc1ccc(C)cc1 -32%
CCNc1cc(N2CCN(C3CCCCC3)CC2)c2noc3c2c1C(=O)c1ccccc1-3 -12.5%
O=C(O)Cc1sc(Nc2ccccc2)nc1-c1ccccc1 -1.31%
COc1ccc(S(=O)(=O)NCCS(=O)(=O)N2CCN(c3ccccc3)CC2)cc1C 18.4%
O=C(O)Cc1ccc(NC2(c3ccccc3)C(=O)c3ccccc3C2=O)cc1 -17.4%
COc1ccc(C(=O)Nc2ccccc2SCc2cc(=O)c3cccc(C)c3[nH]2)cc1 3.12%
COC(=O)c1ccccc1NC(=O)C1=C(C)C(=O)OC12CCCCCC2 5.41%
CCCSc1ncc(Cl)c(C(=O)NCc2ccc(OC)cc2)n1 -11%
CN(C)CCNC(=O)c1ccc2c(c1)N(Cc1ccccc1)C(=O)c1ccccc1S2(=O)=O -7.27%
COc1ccc(-c2cn3nc(N4CCCC(C(=O)Nc5cccc(Cl)c5C)C4)sc3n2)cc1 (configuration not stated) 2.24%
CCOCCn1ccc2c(OCC(=O)NCc3ccc(C)cc3)cccc2c1=O -6.75%
COc1cccc(-n2cc(C(=O)OCc3ccc(F)c(F)c3)c3ccccc3c2=O)c1 -5.43%
O=C(CN1C(=O)COc2ccc(S(=O)(=O)N3CCCC3)cc21)N1CCN(c2ccc(Cl)cc2)CC1 0.775%
Cc1ccc2c(c1)N(S(=O)(=O)c1cc(-c3onc(C)c3C)ccc1C)CCO2 -13.4%
COc1ccccc1CNC(=O)CCn1c(=O)c2ccccc2n(CC(=O)Nc2ccc(Br)cc2F)c1=O -2.06%
O=C(Cn1cc(C(=O)c2ccncc2)c(=O)c2cc(F)ccc21)Nc1ccc(Cl)cc1 -15.4%
O=C1c2[nH]nc(-c3ccccc3O)c2C(c2cccc(O)c2)N1Cc1ccncc1 (configuration not stated) -13.3%
COCCCNC(=O)N1[C@H](c2cccs2)[C@@H](C)C(=O)[C@@H](C)[C@@H]1c1cccs1 -4.86%
Cc1ccc(C(=O)Nc2nc3n(n2)C(c2ccc(F)cc2)C=C(c2ccccc2)N3)cc1 (configuration not stated) -9.77%
CCOC(=O)c1c(NC(=O)c2ccc(Br)cc2)sc2c1CCCC2 -22.8%
Cc1nn(C)c2c1c(C(F)(F)F)cc(=O)n2CC(=O)N1CCCCC1 -4.67%
O=C(O)c1cccc(Nc2ncnc3ccc(Br)cc23)c1 13.7%
CCOc1ccccc1-n1nnc(-c2nc(-c3ccccc3C)no2)c1C -12.2%
Cc1ccc2nc(-c3cccc(NC(=O)c4ccc(Br)o4)c3)oc2c1 -7.29%
COc1ccc(C(=O)Nc2nnc(S(=O)(=O)N3CCCc4ccccc43)s2)cc1 -10.7%
O=C(Nc1ccc(F)c(Cl)c1)C1CCN(S(=O)(=O)c2ccc3[nH]c(=O)ccc3c2)CC1 -18.4%
CCCCNc1nc2c(c(=O)n(C)c(=O)n2C)n1CC(O)COc1ccccc1C (configuration not stated) -18.5%
Cc1ccc2cc(CN(C)C(=O)c3cccc(Cl)c3)c(=O)[nH]c2c1 -15.4%
Cc1ccccc1NC(=O)c1cccc2c(=O)c3c([nH]c12)CCCC3 -14%
Cc1ccc(NC(=O)CSc2ccc3nnc(CCNS(=O)(=O)c4ccccc4)n3n2)cc1Cl -5.78%
Cc1ccc(Cl)cc1NC(=O)N1CCC(CN2CCCCCC2)CC1 -5.17%
CCCCC(=O)OCc1cc(=O)n2nc(C3CCCCC3)sc2n1 -5.43%
Cc1cccc(Nc2ccccc2C(=O)O)c1C -16.8%
CCC1CN(C(=O)Nc2cc(C)ccc2OC)c2cc(Cl)ccc2O1 (configuration not stated) -7%
Nc1ccc(/C=C/c2ccc(N)cc2S(=O)(=O)O)c(S(=O)(=O)O)c1 -9.96% [at 0.46 µM]
Cc1cccc(OCC(=O)Nc2c(C(=O)N3CCN(c4ccccc4F)CC3)oc3ccccc23)c1 -14.7%
CCOc1ccc(S(=O)(=O)Nc2ccc3oc(C)c(C(=O)OC(C)C)c3c2)cc1 -45.6%
Cc1cc(C)cc(OCC(=O)NC(Cc2c[nH]c3ccccc23)C(=O)O)c1 (configuration not stated) -5.01%
CCOc1cc(N)c(Cl)cc1C(=O)NCC1CN(Cc2ccc(F)cc2)CCO1 (configuration not stated) -14.4%
Cc1cc(C)n(-c2nc3ccccc3nc2Nc2ccc(Cl)c(Cl)c2)n1 -9.09%
COc1ccccc1NCc1cccn1-c1nnc(N2CCCCCC2)s1 -11.6%
COC(=O)c1ccc(NC(=O)CC2Nc3cc(C)c(C)cc3NC2=O)cc1 (configuration not stated) -16.4%
O=C(Nc1ccccc1)N(Cc1cccs1)c1ccc(F)cc1 -6.3%
CCOC(=O)c1ccc(N2C(=O)c3[nH]nc(-c4ccc(OC)cc4)c3C2c2ccccc2Cl)cc1 (configuration not stated) -11.2%
Cc1ccc(NC(=O)N2CCc3cc(S(=O)(=O)N4CCC(C)CC4)ccc32)cc1F -7.42%
CCCc1cc(=O)n2[nH]c(NC(=O)c3ccccc3Cl)nc2n1 -6.63%
CCOC(=O)N1CCN(C(=O)CN(c2cccc(Cl)c2)S(=O)(=O)c2ccccc2)CC1 -8.96%
CCCN(C(=O)c1cc2c(=O)oc3ccccc3c2s1)c1cccc(Cl)c1 -3.55%
Cc1ccc2onc(CC(=O)Nc3cccc(C(F)(F)F)c3)c2c1 -1.69%
COc1ccc(C2c3c(n(C)c4ccccc34)C(=O)N2CC(=O)Nc2cc(Cl)ccc2C)cc1 (configuration not stated) -0.907%
CCc1cccc(NS(=O)(=O)c2ccc3c(c2)n(C)c(=O)c(=O)n3C)c1 -3.9%
Cc1ccc(CNC(=O)CCCn2nc(C)c3c(C)n(-c4ccccc4)nc3c2=O)cc1 -10.4%
CCOC(=O)c1c(NC(=O)CSc2cn(CCNC(=O)c3ccc(OC)c(OC)c3)c3ccccc23)sc2c1CCCC2 -2.65%
C[n+]1ccccc1/C=N/O -14.4%
CCOC(=O)CSc1nc2cc3c(cc2c(=O)n1CCCC(=O)NCCc1ccc(OC)c(OC)c1)OCO3 -8.13%
CCOC(=O)c1sc(N2C(=O)c3oc4ccc(C)cc4c(=O)c3C2c2ccccc2F)nc1C (configuration not stated) -20%
COc1cccc(CNC(=O)c2cc(S(=O)(=O)N3CCCCCC3)cn2C)c1 9.21%
CC(=O)Nc1nonc1-c1nnc(SCC(=O)Nc2cccc(F)c2)n1-c1ccccc1 -7.65%
Cc1ccc(N2CCN(S(=O)(=O)c3cc(C(=O)Nc4cc(Cl)cc(Cl)c4)ccc3F)CC2C)cc1 (configuration not stated) -4.14%
CC(=O)c1ccc(NC(=O)C2Cc3ccccc3N2C(=O)c2ccccc2)cc1 (configuration not stated) -9.24%
Cc1ccc(CN2CCCn3nc(C(=O)NC(C)C)cc3C2=O)cc1 -12%
COC(=O)c1scc(-c2ccc(C)cc2)c1S(=O)(=O)Nc1ccc(F)cc1F -1.83%
CN1CCN(c2c(F)cc3c(=O)c(C(=O)O)cn4c3c2SCC4)CC1 -6.1%
Cc1nn(CC(=O)NCc2ccc(Cl)cc2)c(=O)c2cc3sccc3n12 -11.5%
O=C(Nc1ccc2oc(-c3cccnc3)nc2c1)c1ccc(Br)cc1 -3.05%
COc1ccc(NC(=O)Cn2c(=O)n(Cc3nc(-c4ccccc4)no3)c(=O)c3cc4c(cc32)OCO4)c(OC)c1 -14.2%
COc1ccc(Oc2c(C(F)(F)F)oc3c(CN4CCCC(C)C4)c(O)ccc3c2=O)cc1 (configuration not stated) 9.02%

— PubChem BioAssay AID1159614 (National Center for Advancing Translational Sciences (NCATS), 2016)
